Assay results published in the supplement of paper PMC6609913.
Counter-ions that a name gives are not always drawn. ± gives the standard deviation of the averaged measurements. Whole data set: some 1,300 compounds, median “normalised cell viability” near 1, cut for the lowest 2% near 0.14. Some of the results follow.

System: V-C8 (BRCA2-deficient hamster cells)
Assay: normalised cell viability (fraction of plate median); higher = more viable cells (less toxic)
Conditions: 5 µM
Outline: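 BRCA2-deficient hamster V-C8 cells and BRCA2-restored V-C8 cells were plated in 96-well plates, and library drugs were added 24 h later at 5 μM in 100 μl medium. Exposure lasted 3 days in screen 1 and 6 days in screen 2, next to solvent-only wells. Viability was then read by resazurin assay, median-plate normalised and averaged across triplicate wells.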

SMILES	normalised cell viability (treatment time: 3 days)	normalised cell viability (treatment time: 6 days)
CCCNC(=O)NS(=O)(=O)c1ccc(Cl)cc1 [Chlorpropamide]	1.02 ± 0.036	1.07 ± 0.072
CCN(CC)C(C)CN1c2ccccc2Sc2ccccc21 (stereo unspecified) [Ethopropazine hydrochloride]	1.19 ± 0.26	0.923 ± 0.041
Cc1cc(O)c(C(=O)N[C@@H](C(=O)N[C@@H]2C(=O)N3C(C(=O)O)=C(CSc4nnnn4C)CS[C@H]23)c2ccc(O)cc2)cn1 [Cefpiramide]	1.03 ± 0.074	1.09 ± 0.07
CO[C@H]1/C=C/O[C@@]2(C)Oc3c(C)c(O)c4c(O)c(c5c(nc6cc(C)ccn65)c4c3C2=O)NC(=O)/C(C)=C\C=C\[C@H](C)[C@H](O)[C@@H](C)[C@@H](O)[C@@H](C)[C@H](OC(C)=O)[C@@H]1C [Rifaximin]	0.964 ± 0.023	0.928 ± 0.017
O=C1[C@H]2CCCC[C@H]2C(=O)N1CCCCN1CCN(c2nsc3ccccc23)CC1 [Perospirone]	0.978 ± 0.057	0.9647 ± 0.0093
Clc1cccc(Cl)c1NC1=NCCN1 [Clonidine hydrochloride]	0.956 ± 0.05	1 ± 0.069
Nc1nc2c(ncn2COC(CO)CO)c(=O)[nH]1 [Ganciclovir]	1.06 ± 0.015	1 ± 0.052
CC=CC(=O)N(CC)c1ccccc1C [Crotamiton]	0.866 ± 0.12	0.929 ± 0.025
CNCCc1ccccn1 [Betahistine mesylate]	0.99 ± 0.031	1.11 ± 0.052
NCCCCCC(=O)O [Aminocaproic acid]	0.927 ± 0.023	1.07 ± 0.17
CN(C)C(=N)NC(=N)N [Metformin hydrochloride]	1.03 ± 0.043	1.02 ± 0.019
CCOC(=O)/C=C(C)/C=C/C=C(C)/C=C/c1c(C)cc(OC)c(C)c1C [Etretinate]	1.01 ± 0.027	1.1 ± 0.073
NC[C@H]1O[C@H](O[C@H]2[C@H](O)[C@@H](O[C@H]3O[C@H](CO)[C@@H](O)[C@H](N)[C@H]3O)[C@H](N)C[C@@H]2N)[C@H](N)C[C@@H]1O [Tobramycin]	0.949 ± 0.028	1.04 ± 0.026
C=CCOc1ccccc1OCC(O)CNC(C)C (stereo unspecified) [Oxprenolol hydrochloride]	1.04 ± 0.034	1.07 ± 0.036
Cc1c(N)c(=O)n(-c2ccccc2)n1C [Ampyrone]	1.01 ± 0.12	1.06 ± 0.055
CCN(CC)CCOCCOC(=O)C1(c2ccccc2)CCCC1 [Carbetapentane citrate]	0.163 ± 0.0053	0.143 ± 0.011
Cc1cc(C(C)(C)C)cc(C)c1CC1=NCCN1 [Xylometazoline hydrochloride]	0.945 ± 0.042	1.06 ± 0.046
CCN(CC)C(=O)C1(c2ccccc2)CC1CN (stereo unspecified) [Milnacipran hydrochloride]	0.95 ± 0.089	1 ± 0.082
CCN(CCCCOC(=O)c1ccc(OC)c(OC)c1)C(C)Cc1ccc(OC)cc1 (stereo unspecified) [Mebeverine hydrochloride]	0.997 ± 0.071	0.978 ± 0.22
O=P(O)(O)C(O)(Cn1ccnc1)P(=O)(O)O [Zoledronic acid hydrate]	1.08 ± 0.077	1.02 ± 0.031
COc1cc2nc(N3CCN(C(=O)C4COc5ccccc5O4)CC3)nc(N)c2cc1OC (stereo unspecified) [Doxazosin mesylate]	0.953 ± 0.014	0.855 ± 0.12
CCN(CC)C(=O)Nc1ccc(OCC(O)CNC(C)(C)C)c(C(C)=O)c1 (stereo unspecified) [Celiprolol HCl]	1.13 ± 0.12	0.988 ± 0.031
N[C@H]1CONC1=O [(S)-(-)-Cycloserine]	1.07 ± 0.062	0.992 ± 0.019

SMILES	normalised cell viability (treatment time: 3 days)	normalised cell viability (treatment time: 6 days)
CCCCC1C(=O)N(c2ccccc2)N(c2ccc(O)cc2)C1=O (stereo unspecified) [Oxyphenbutazone]	0.941 ± 0.097	0.982 ± 0.061
CCCOc1ccccc1-c1nc2[nH]nnc2c(=O)[nH]1 [Zaprinast]	1.15 ± 0.029	0.98 ± 0.025
CC#C[C@]1(O)CC[C@H]2[C@@H]3CCC4=CC(=O)CCC4=C3[C@@H](c3ccc(N(C)C)cc3)C[C@@]21C [Mifepristone]	0.999 ± 0.055	0.895 ± 0.037
COc1ccc(Cl)cc1C(=O)NCCc1ccc(S(=O)(=O)NC(=O)NC2CCCCC2)cc1 [Glibenclamide]	0.945 ± 0.13	0.891 ± 0.056
CC(C(O)c1ccc(O)cc1)N1CCC(Cc2ccccc2)CC1 (stereo unspecified) [Ifenprodil tartrate]	0.902 ± 0.057	1.04 ± 0.074
COC(=O)N/N=C/c1c[n+]([O-])c2ccccc2[n+]1[O-] [Carbadox]	0.69 ± 0.18	0.549 ± 0.029
CN(C(=O)CN(CCO)CC(=O)N(C)C(C)(C)Cc1ccccc1)C(C)(C)Cc1ccccc1 [Oxethazaine]	0.147 ± 0.0044	0.172 ± 0.0031
Cc1cc(C)nc(NS(=O)(=O)c2ccc(N)cc2)n1 [Sulfamethazine sodium salt]	1.08 ± 0.015	1.06 ± 0.27
CC1(C)O[C@@H]2C[C@H]3[C@@H]4C[C@H](F)C5=CC(=O)C=C[C@]5(C)[C@@]4(F)[C@@H](O)C[C@]3(C)[C@]2(C(=O)CO)O1 [Fluocinolone acetonide]	0.999 ± 0.018	1.09 ± 0.028
COc1cc(NS(=O)(=O)c2ccc(N)cc2)ncn1 [Sulfamonomethoxine]	1.02 ± 0.057	1.05 ± 0.031
CC(C)[C@H](N)C(=O)OCCOCn1cnc2c(=O)nc(N)[nH]c21 [Valacyclovir hydrochloride]	1.09 ± 0.069	1.02 ± 0.037
CN1CCN2c3ncccc3Cc3ccccc3C2C1 (stereo unspecified) [Mirtazapine]	1.05 ± 0.026	1.06 ± 0.073
CO/N=C(\C(=O)N[C@@H]1C(=O)N2C(C(=O)O)=C(COC(C)=O)CS[C@H]12)c1csc(N)n1 [Cefotaxime sodium salt]	1.12 ± 0.052	1.11 ± 0.095
C[C@]12CC[C@@H]3c4ccc(O)cc4C[C@@H](CCCCCCCCC[S+]([O-])CCCC(F)(F)C(F)(F)F)[C@H]3[C@@H]1CC[C@@H]2O (stereo partly specified) [Fulvestrant]	0.606 ± 0.039	0.6924 ± 0.0034
CCCCOc1cc(C(=O)OCCN(CC)CC)ccc1N [Benoxinate hydrochloride]	1.19 ± 0.096	1.27 ± 0.042
Clc1ccc2nsnc2c1NC1=NCCN1 [Tizanidine HCl]	1.01 ± 0.029	1.02 ± 0.06
CC(C)Oc1ccc2c(=O)c(-c3ccccc3)coc2c1 [Ipriflavone]	0.963 ± 0.18	1.05 ± 0.11
Cc1cc2cc3c(C)cc(=O)oc3c(C)c2o1 [Trioxsalen]	1.04 ± 0.047	1.07 ± 0.027
CC(=O)Nc1nnc(S(N)(=O)=O)s1 [Acetazolamide]	0.983 ± 0.031	1.02 ± 0.024
CNCC(O)c1ccc(O)c(O)c1 (stereo unspecified) [Racepinephrine HCl]	1 ± 0.045	1.02 ± 0.064
CCOC1O[C@H]([C@@H](COCc2ccccc2)OCc2ccccc2)[C@H](OCc2ccccc2)[C@H]1O (stereo partly specified) [Tribenoside]	0.953 ± 0.027	0.81 ± 0.061
CC(=O)Nc1c(I)c(C(=O)N[C@H]2C(O)O[C@H](CO)[C@@H](O)[C@@H]2O)c(I)c(N(C)C(C)=O)c1I (stereo partly specified) [Metrizamide]	1.08 ± 0.023	1.124 ± 0.011
CCN(CC)CCNC(=O)c1ccc(N)cc1 [Procainamide hydrochloride]	1.14 ± 0.024	1.01 ± 0.048

SMILES	normalised cell viability (treatment time: 3 days)	normalised cell viability (treatment time: 6 days)
CN[C@H]1CC[C@@H](c2ccc(Cl)c(Cl)c2)c2ccccc21 [Sertraline]	0.594 ± 0.074	0.256 ± 0.022
C[C@@H]1CCC[C@H](C)N1NC(=O)c1ccc(Cl)c(S(N)(=O)=O)c1 [Clopamide]	1.12 ± 0.061	1.06 ± 0.052
CC[C@H]1OC(=O)[C@H](C)[C@@H](O[C@H]2C[C@@](C)(OC)[C@@H](O)[C@H](C)O2)[C@H](C)[C@@H](O[C@@H]2O[C@H](C)C[C@H](N(C)C)[C@H]2O)[C@](C)(O)C[C@@H](C)CN(C)[C@H](C)[C@@H](O)[C@]1(C)O [Azithromycin]	1.002 ± 0.0076	1.03 ± 0.02
Cc1ccc(-c2cc(C(F)(F)F)nn2-c2ccc(S(N)(=O)=O)cc2)cc1 [Celecoxib]	0.999 ± 0.033	1.04 ± 0.049
CC(CNC1CCCCC1)OC(=O)c1ccccc1 (stereo unspecified) [Hexylcaine hydrochloride]	1.06 ± 0.043	1.01 ± 0.033
Nc1ccc(S(=O)(=O)Nc2nccs2)cc1 [Sulfathiazole]	0.983 ± 0.068	1.03 ± 0.05
CC12CC3CC(C)(C1)CC(N)(C3)C2 [Memantine Hydrochloride]	0.94 ± 0.05	1.02 ± 0.032
O=C(Nc1ccc([N+](=O)[O-])cc1Cl)c1cc(Cl)ccc1O [Niclosamide]	0.124 ± 0.0032	0.0967 ± 0.0062
CCOc1ccc(Cc2nccc3cc(OCC)c(OCC)cc23)cc1OCC [Ethaverine hydrochloride]	0.625 ± 0.013	0.534 ± 0.022
C#C[C@]1(O)CC[C@H]2[C@@H]3CCC4=Cc5oncc5C[C@]4(C)[C@H]3CC[C@@]21C [Danazol]	1.07 ± 0.035	0.988 ± 0.025
CCC[C@@H]1C[C@@H](C(=O)N[C@@H]([C@H]2O[C@H](SC)[C@H](O)[C@@H](O)[C@H]2O)[C@@H](C)O)N(C)C1 [Lincomycin hydrochloride]	1.03 ± 0.016	1.12 ± 0.019
CN1CCCN=C1/C=C/c1cccs1 [Pyrantel tartrate]	1.06 ± 0.019	1.02 ± 0.079
CCN(CC)CCN[C@@H](C(=O)OCCC(C)C)c1ccccc1 [Camylofine chlorhydrate]	1.07 ± 0.065	0.978 ± 0.027
NNC(=O)c1ccncc1 [Isoniazid]	0.974 ± 0.1	1.07 ± 0.074
CC1(C)O[C@@H]2C[C@H]3[C@@H]4C[C@H](F)C5=CC(=O)CC[C@]5(C)[C@H]4[C@@H](O)C[C@]3(C)[C@]2(C(=O)CO)O1 [Flurandrenolide]	0.987 ± 0.04	1.06 ± 0.15
O=c1[nH]c(=O)n([C@H]2C[C@H](O)[C@@H](CO)O2)cc1I [Idoxuridine]	0.4 ± 0.041	0.363 ± 0.011
Cc1cccc(N(C)C(=S)Oc2ccc3ccccc3c2)c1 [Tolnaftate]	1 ± 0.041	0.983 ± 0.02
O=C(O)c1cccnc1 [Niacin]	0.94 ± 0.016	1.03 ± 0.02
CCCCc1oc2ccccc2c1C(=O)c1cc(I)c(OCCN(CC)CC)c(I)c1 [Amiodarone hydrochloride]	0.6801 ± 0.0018	0.701 ± 0.038
CCN1CCCC1CNC(=O)c1cc(S(N)(=O)=O)ccc1OC (stereo unspecified) [Sulpiride]	1.1 ± 0.062	1.05 ± 0.032
COc1ccc(-c2ccc3cc(C(=O)O)ccc3c2)cc1C12CC3CC(CC(C3)C1)C2 [Adapalene]	0.294 ± 0.022	0.397 ± 0.041
NCCc1ccc(O)c(O)c1 [Dopamine hydrochloride]	1.02 ± 0.047	0.928 ± 0.044
